Biological target: ACE2-His fusion protein (human, UniProt Q9BYF1)
Assay: BLI; Octet RED96; ACE2-His (10 μg/mL) captured on Ni-NTA biosensors; APOE3 or APOE4 at 62.5-1000 nM; SD buffer (PBS pH 7.4, 0.05% Tween 20, 0.01% BSA), 30 °C, 1000 rpm; 1:1 binding model
Conditions: both partners purified

Chain of UniProt Q9BYF1 (Q9BYF1 18-740): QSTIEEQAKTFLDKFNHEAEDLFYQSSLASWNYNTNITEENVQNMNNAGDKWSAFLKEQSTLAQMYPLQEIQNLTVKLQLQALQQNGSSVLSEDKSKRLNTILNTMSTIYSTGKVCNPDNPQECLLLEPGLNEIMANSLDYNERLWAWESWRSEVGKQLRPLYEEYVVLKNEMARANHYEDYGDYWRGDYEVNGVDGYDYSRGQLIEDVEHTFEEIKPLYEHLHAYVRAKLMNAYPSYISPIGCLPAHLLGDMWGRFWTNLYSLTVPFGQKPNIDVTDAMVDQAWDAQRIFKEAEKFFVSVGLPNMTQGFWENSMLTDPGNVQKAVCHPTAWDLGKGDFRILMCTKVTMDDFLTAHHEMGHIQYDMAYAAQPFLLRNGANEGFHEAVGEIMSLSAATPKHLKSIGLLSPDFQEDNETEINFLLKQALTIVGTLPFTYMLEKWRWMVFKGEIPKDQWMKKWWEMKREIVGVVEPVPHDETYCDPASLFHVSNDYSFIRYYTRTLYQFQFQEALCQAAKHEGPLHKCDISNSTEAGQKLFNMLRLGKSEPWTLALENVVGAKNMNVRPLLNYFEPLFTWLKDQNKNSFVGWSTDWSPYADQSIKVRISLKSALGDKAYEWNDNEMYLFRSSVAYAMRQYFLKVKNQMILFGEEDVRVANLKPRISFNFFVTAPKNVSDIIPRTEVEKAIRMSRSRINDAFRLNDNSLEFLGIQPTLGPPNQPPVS

B1: recombinant human APOE4 protein (natural protein)
chain: not shown
notes: also called recombinant APOE4
Kd: 0.19 ± 0.00223 µM

From paper PMC9340718 (Signal Transduction and Targeted Therapy, 2022)
